# From the supplement of paper PMC8728848
# The other results are listed elsewhere or left out.
# Experiments:
# Assay in all cases: glycan array binding signal (z-score within array); higher = stronger binding
# Details in all cases: glycan notation: IUPAC condensed, linker removed
# [1] = biological target: Gal(a1-6)Glc
# In short: (§1)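 Glycan array binding is given as a within-array Z-score, which can be read as non-binding when negative. The arrays, 3228 of them, came from the Consortium for Functional Glycomics database and were retained only where the protein sequence was available. Z-scores were averaged across arrays of the same protein sequence at different concentrations or buffers and across linkers.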
# [2] = biological target: Gal(b1-2)Gal
# In short: as §1
# [3] = biological target: Gal(b1-3)Gal
# In short: as §1
# [4] = biological target: Gal(b1-3)Gal(b1-4)GlcNAc
# In short: as §1
# [5] = biological target: Gal(b1-3)GalNAc
# In short: as §1
# [6] = biological target: Gal(b1-3)GalNAc(a1-3)[Fuc(a1-2)]Gal(b1-4)Glc
# In short: as §1
# [7] = biological target: Gal(b1-3)GalNAc(a1-3)[Fuc(a1-2)]Gal(b1-4)GlcNAc
# In short: as §1
# [8] = biological target: Gal(b1-3)GalNAc(b1-3)Gal
# In short: as §1
# [9] = biological target: Gal(b1-3)GalNAc(b1-3)Gal(a1-4)Gal(b1-4)Glc
# In short: as §1
# [10] = biological target: Gal(b1-3)GalNAc(b1-4)Gal(b1-4)Glc
# In short: as §1
# [11] = biological target: Gal(b1-3)GalNAc(b1-4)[Neu5Ac(a2-3)]Gal(b1-4)Glc
# In short: as §1
# [12] = biological target: Gal(b1-3)GlcNAc
# In short: as §1
# [13] = biological target: Gal(b1-3)GlcNAc(a1-3)Gal(b1-4)GlcNAc
# In short: as §1
# [14] = biological target: Gal(b1-3)GlcNAc(a1-6)Gal(b1-4)GlcNAc
# In short: as §1
# [15] = biological target: Gal(b1-3)GlcNAc(b1-2)Man
# In short: as §1
# [16] = biological target: Gal(b1-3)GlcNAc(b1-2)Man(a1-3)[Gal(b1-3)GlcNAc(b1-2)Man(a1-6)]Man(b1-4)GlcNAc(b1-4)GlcNAc
# In short: as §1
# [17] = biological target: Gal(b1-3)GlcNAc(b1-2)Man(a1-3)[Gal(b1-3)GlcNAc(b1-2)Man(a1-6)]Man(b1-4)GlcNAc(b1-4)[Fuc(a1-6)]GlcNAc
# In short: as §1
# [18] = biological target: Gal(b1-3)GlcNAc(b1-2)Man(a1-3)[GlcNAc(b1-4)][Gal(b1-3)GlcNAc(b1-2)Man(a1-6)]Man(b1-4)GlcNAc(b1-4)GlcNAc
# In short: as §1
# [19] = biological target: Gal(b1-3)GlcNAc(b1-2)[Gal(b1-3)GlcNAc(b1-6)]Man(a1-6)[Gal(b1-3)GlcNAc(b1-2)Man(a1-3)]Man(b1-4)GlcNAc(b1-4)GlcNAc
# In short: as §1
# [20] = biological target: Gal(b1-3)GlcNAc(b1-3)Gal(b1-3)GlcNAc
# In short: as §1
# [21] = biological target: Gal(b1-3)GlcNAc(b1-3)Gal(b1-4)Glc
# In short: as §1
# [22] = biological target: Gal(b1-3)GlcNAc(b1-3)Gal(b1-4)GlcNAc
# In short: as §1
# [23] = biological target: Gal(b1-3)GlcNAc(b1-3)Gal(b1-4)GlcNAc(b1-2)Man(a1-3)[Gal(b1-3)GlcNAc(b1-3)Gal(b1-4)GlcNAc(b1-2)Man(a1-6)]Man(b1-4)GlcNAc(b1-4)GlcNAc
# In short: as §1
# [24] = biological target: Gal(b1-3)GlcNAc(b1-3)Gal(b1-4)GlcNAc(b1-2)[Gal(b1-3)GlcNAc(b1-3)Gal(b1-4)GlcNAc(b1-6)]Man(a1-6)[Gal(b1-3)GlcNAc(b1-3)Gal(b1-4)GlcNAc(b1-2)Man(a1-3)]Man(b1-4)GlcNAc(b1-4)[Fuc(a1-6)]GlcNAc
# In short: as §1
# [25] = biological target: Gal(b1-3)GlcNAc(b1-3)Gal(b1-4)GlcNAc(b1-3)Gal(b1-4)GlcNAc(b1-2)[Gal(b1-3)GlcNAc(b1-3)Gal(b1-4)GlcNAc(b1-3)Gal(b1-4)GlcNAc(b1-6)]Man(a1-6)[Gal(b1-3)GlcNAc(b1-3)Gal(b1-4)GlcNAc(b1-3)Gal(b1-4)GlcNAc(b1-2)Man(a1-3)]Man(b1-4)GlcNAc(b1-4)[Fuc(a1-6)]GlcNAc
# In short: as §1
# [26] = biological target: Gal(b1-3)GlcNAc(b1-3)Gal(b1-4)GlcNAc(b1-6)[Gal(b1-3)GlcNAc(b1-3)]Gal(b1-4)Glc
# In short: as §1
# [27] = biological target: Gal(b1-3)GlcNAc(b1-3)Gal(b1-4)[Fuc(a1-3)]GlcNAc
# In short: as §1
# [28] = biological target: Gal(b1-3)GlcNAc(b1-3)Gal(b1-4)[Fuc(a1-3)]GlcNAc(b1-6)[Gal(b1-3)GlcNAc(b1-3)]Gal(b1-4)Glc
# In short: as §1
# [29] = biological target: Gal(b1-3)GlcNAc(b1-3)GalNAc
# In short: as §1
# [30] = biological target: Gal(b1-3)GlcNAc(b1-6)Gal(b1-4)GlcNAc
# In short: as §1
# [31] = biological target: Gal(b1-3)GlcNAc(b1-6)GalNAc
# In short: as §1
# [32] = biological target: Gal(b1-3)GlcNAc(b1-6)[Gal(b1-3)]GalNAc
# In short: as §1
# [33] = biological target: Gal(b1-3)GlcNAc6S
# In short: as §1
# [34] = biological target: Gal(b1-3)[Fuc(a1-4)]GlcNAc
# In short: as §1
# [35] = biological target: Gal(b1-3)[Fuc(a1-4)]GlcNAc(b1-2)Man
# In short: as §1
# [36] = biological target: Gal(b1-3)[Fuc(a1-4)]GlcNAc(b1-2)Man(a1-3)[Gal(b1-3)[Fuc(a1-4)]GlcNAc(b1-2)Man(a1-6)]Man(b1-4)GlcNAc(b1-4)[Fuc(a1-6)]GlcNAc
# In short: as §1
# [37] = biological target: Gal(b1-3)[Fuc(a1-4)]GlcNAc(b1-3)Gal(b1-3)[Fuc(a1-4)]GlcNAc
# In short: as §1
# [38] = biological target: Gal(b1-3)[Fuc(a1-4)]GlcNAc(b1-3)Gal(b1-4)[Fuc(a1-3)]GlcNAc
# In short: as §1
# [39] = biological target: Gal(b1-3)[Fuc(a1-4)]GlcNAc(b1-6)GalNAc
# In short: as §1
# [40] = biological target: Gal(b1-3)[GlcNAc(b1-6)]GalNAc
# In short: as §1
# [41] = biological target: Gal(b1-3)[Neu5Ac(a2-6)]GalNAc
# In short: as §1
# [42] = biological target: Gal(b1-3)[Neu5Ac(a2-6)]GlcNAc(b1-4)Gal(b1-4)Glc
# In short: as §1
# [43] = biological target: Gal(b1-3)[Neu5Ac(b2-6)]GalNAc
# In short: as §1
# [44] = biological target: Gal(b1-4)Gal
# In short: as §1
# [45] = biological target: Gal(b1-4)GalNAc(a1-3)[Fuc(a1-2)]Gal(b1-4)GlcNAc
# In short: as §1
binder,measurement,setting,value
BTL (Bryothamnion triquetrum) (protein) ADPICGSSGYSCTTPAILTPKSPGSFPSGYSKVIVTGVGGSYSVYIHRPDGFKVYKASEGGCASFGSYSGGGNSEVGKYGSGGTVVAVACK,glycan array binding signal (z-score),[1],-0.287
same,glycan array binding signal (z-score),[2],-0.232
same,glycan array binding signal (z-score),[3],-0.189
same,glycan array binding signal (z-score),[4],-0.234
same,glycan array binding signal (z-score),[5],-0.199
same,glycan array binding signal (z-score),[6],-0.293
same,glycan array binding signal (z-score),[7],-0.201
same,glycan array binding signal (z-score),[8],-0.22
same,glycan array binding signal (z-score),[9],-0.148
same,glycan array binding signal (z-score),[10],-0.226
same,glycan array binding signal (z-score),[11],-0.219
same,glycan array binding signal (z-score),[12],-0.227
same,glycan array binding signal (z-score),[13],-0.2
same,glycan array binding signal (z-score),[14],-0.216
same,glycan array binding signal (z-score),[15],-0.208
same,glycan array binding signal (z-score),[16],-0.154
same,glycan array binding signal (z-score),[17],4.76
same,glycan array binding signal (z-score),[18],-0.109
same,glycan array binding signal (z-score),[19],-0.183
same,glycan array binding signal (z-score),[20],-0.239
same,glycan array binding signal (z-score),[21],-0.205
same,glycan array binding signal (z-score),[22],-0.201
same,glycan array binding signal (z-score),[23],-0.189
same,glycan array binding signal (z-score),[24],0.07
same,glycan array binding signal (z-score),[25],2.33
same,glycan array binding signal (z-score),[26],-0.165
same,glycan array binding signal (z-score),[27],-0.256
same,glycan array binding signal (z-score),[28],-0.267
same,glycan array binding signal (z-score),[29],-0.247
same,glycan array binding signal (z-score),[30],-0.19
same,glycan array binding signal (z-score),[31],-0.194
same,glycan array binding signal (z-score),[32],-0.214
same,glycan array binding signal (z-score),[33],-0.286
same,glycan array binding signal (z-score),[34],-0.271
same,glycan array binding signal (z-score),[35],-0.111
same,glycan array binding signal (z-score),[36],1.84
same,glycan array binding signal (z-score),[37],-0.201
same,glycan array binding signal (z-score),[38],-0.268
same,glycan array binding signal (z-score),[39],-0.152
same,glycan array binding signal (z-score),[40],-0.182
same,glycan array binding signal (z-score),[41],-0.205
same,glycan array binding signal (z-score),[42],-0.188
same,glycan array binding signal (z-score),[43],-0.189
same,glycan array binding signal (z-score),[44],-0.185
same,glycan array binding signal (z-score),[45],-0.276
